# PMC9310709, “Single Stabilizing Point Mutation Enables High‐Resolution Co‐Crystal Structures of the Adenosine A2A Receptor with Preladenant Conjugates” (Angewandte Chemie (International Ed. in English), 2022)
# Read-outs that look alike come from different tables or passages of the source.
# Experiments:
# Human A1AR = target: T1, Human A1AR (Homo sapiens, UniProt P30542); test: Radioligand competition binding, [3H]CCPA; conditions: for Ki: means from 3 independent experiments, read-out: Ki±SEM; for inhibition at 1 µM: read-out: % inhibition±SEM at 1 μM
# T1 sequence (P30542 1-326): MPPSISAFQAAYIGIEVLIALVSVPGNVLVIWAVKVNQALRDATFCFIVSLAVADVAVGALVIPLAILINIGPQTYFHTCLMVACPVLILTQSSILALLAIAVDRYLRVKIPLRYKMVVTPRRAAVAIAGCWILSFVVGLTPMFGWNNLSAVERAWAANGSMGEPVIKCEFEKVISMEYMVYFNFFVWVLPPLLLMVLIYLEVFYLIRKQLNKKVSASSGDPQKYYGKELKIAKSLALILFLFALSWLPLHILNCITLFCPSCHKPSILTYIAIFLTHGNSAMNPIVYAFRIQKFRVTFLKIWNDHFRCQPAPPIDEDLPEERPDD
# Method: (§1) A synthetic strategy to obtain the target compounds was designed as depicted in Figure 1a. The carboxy‐functionalized Preladenant derivative 2 was prepared via its protected precursor 1 (details on the synthesis of compounds 1 and 2 are provided in Scheme S1). Carboxylic acid 2 can subsequently be coupled with amines to connect PEG linkers to the pharmacophore via amide formation. […] Our aim at this point was to study the consequences of the introduced structural modifications on the Preladenant scaffold, and to find out which linker length would be optimal. […] Therefore, we selected the PEG‐substituted compound 4 for subsequent studies. […] Subsequent coupling reaction with an aminoalkyl‐functionalized BODIPY derivative, prepared as previously described,[29] in the presence of HATU/DIPEA under mild conditions yielded the desired BODIPY‐labeled Preladenant derivative 11 (PSB‐2115) in excellent yield (see Figure 1c). […] This is combined with excellent selectivity (>1000‐fold) versus the A2B‐ and A3AR subtypes, and still around 50‐fold selectivity versus the A1AR (see Table 1). Moreover, PEGylation can be expected to increase water‐solubility and modulate pharmacokinetic properties.[30] For example, it will prevent brain penetration and associated side‐effects, such as central stimulation which is undesired for peripheral indications, e.g. in immuno‐oncology and in the treatment of infections. Moreover, it allows the attachment of targeting moieties, e.g. antibodies, and reporter groups such as fluorophores as in PSB‐2115.
# Human A2AAR [1] = target: T2, Human A2AAR (Homo sapiens, UniProt P29274); test: Radioligand competition binding, [3H]MSX-2, wt A2AAR in CHO-S cell membranes; conditions: for Ki: Radioligand [3H]MSX-2, wt A2AAR, CHO-S cell membranes, means from 3 independent experiments, read-out: Ki±SEM
# T2 construct: expressed in transfected cells; host or cells: CHO-S cells (membranes)
# Human A2BAR [2] = target: T3, Human A2BAR (Homo sapiens, UniProt P29275); test: Radioligand competition binding, [3H]PSB-603; conditions: for inhibition at 1 µM: read-out: % inhibition±SEM at 1 μM; for Ki: read-out: Ki±SEM
# T3 sequence (P29275 1-332): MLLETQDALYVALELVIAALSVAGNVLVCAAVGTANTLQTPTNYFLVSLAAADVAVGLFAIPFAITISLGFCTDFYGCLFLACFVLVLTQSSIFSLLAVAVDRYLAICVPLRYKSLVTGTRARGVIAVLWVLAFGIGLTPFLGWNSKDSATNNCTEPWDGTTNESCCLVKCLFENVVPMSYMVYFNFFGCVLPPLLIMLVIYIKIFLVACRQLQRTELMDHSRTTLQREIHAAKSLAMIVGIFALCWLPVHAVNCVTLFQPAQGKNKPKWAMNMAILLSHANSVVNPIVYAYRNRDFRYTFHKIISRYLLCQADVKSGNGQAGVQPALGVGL
# Method: as §1
# Human A3AR [3] = target: T4, Human A3AR (Homo sapiens, UniProt P0DMS8); test: Radioligand competition binding, [3H]PSB-11; conditions: for inhibition at 1 µM: read-out: % inhibition±SEM at 1 μM; for Ki: read-out: Ki±SEM
# T4 sequence (P0DMS8 1-318): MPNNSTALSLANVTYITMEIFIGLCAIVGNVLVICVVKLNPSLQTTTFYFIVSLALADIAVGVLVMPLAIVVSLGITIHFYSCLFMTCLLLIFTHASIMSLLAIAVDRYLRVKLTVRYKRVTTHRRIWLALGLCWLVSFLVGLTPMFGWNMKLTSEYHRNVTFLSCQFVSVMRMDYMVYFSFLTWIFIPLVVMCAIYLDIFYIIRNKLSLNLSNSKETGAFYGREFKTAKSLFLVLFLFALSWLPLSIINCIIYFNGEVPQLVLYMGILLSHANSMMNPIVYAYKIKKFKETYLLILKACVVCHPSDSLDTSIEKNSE
# Method: as §1
# Human A2AAR [4] = target: T2, Human A2AAR; conditions: cited from earlier work
# Human A2BAR [5] = target: T3, Human A2BAR; conditions: cited from earlier work
# Human A3AR [6] = target: T4, Human A3AR; conditions: cited from earlier work
# [7] = Radioligand [3H]PSB-603, at 1 μM
# [8] = Radioligand [3H]PSB-11, at 1 μM
Compound,Ki (Human A1AR; Radioligand [3H]CCPA) [µM],Ki (Human A2AAR [1]) [µM],fold more potent at A2AAR than free carboxylic acid 2 (Human A2AAR [1]; compared with compound 2),inhibition at 1 µM (Human A2BAR [2]; [7]) [%],Ki (Human A2BAR [2]; Radioligand [3H]PSB-603) [µM],inhibition at 1 µM (Human A3AR [3]; [8]) [%],Ki (Human A3AR [3]; Radioligand [3H]PSB-11) [µM],"inhibition at 1 µM (Human A1AR; Radioligand [3H]CCPA, at 1 μM) [%]",inhibition at 1 µM (Human A1AR) [%],inhibition at 1 µM (Human A2BAR [2]) [%],inhibition at 1 µM (Human A3AR [3]) [%],selectivity towards the other AR subtypes (Human A2AAR [4]; A2AAR versus other AR subtypes),"Ki (Human A2AAR [4]; Human A2AAR, read-out: Ki±SEM) [µM]",selectivity for A2AAR (Human A2AAR [4]; conclusion statement),Ki (Human A2BAR [5]) [µM],Ki (Human A3AR [6]) [µM]
"CC(C)(C)OC(=O)COCCOCCOCCOCCNC(=O)COc1ccc(N2CCN(CCn3ncc4c3nc(N)n3nc(-c5ccco5)nc43)CC2)cc1 [Compound 4, tert-Butyl 1-(4-(4-(2-(5-amino-2-(furan-2-yl)-7H-pyrazolo[4,3-e][1,2,4]triazolo[1,5-c]pyrimidin-7-yl)ethyl)piperazin-1-yl)phenoxy)-2-oxo-6,9,12,15-tetraoxa-3-azaheptadecan-17-oate]",> 1,0.00228 ± 0.00041,–,–,> 1,–,> 1,–,38,9,34,–,–,–,–,–
CC(C)(C)OC(=O)COCCOCCOCCOCCOCCOCCOCCOCCOCCOCCOCCOCCOCCOCCOCCOCCOCCOCCOCCOCCNC(=O)COc1ccc(N2CCN(CCn3ncc4c3nc(N)n3nc(-c5ccco5)nc43)CC2)cc1 [Compound 9],> 1,0.0455 ± 0.0123,–,-8,> 1,2,> 1,0,–,–,–,–,–,–,–,–
Nc1nc2c(cnn2CCN2CCN(c3ccc(OCC(=O)NCCOCCOCCOCCOCC(=O)O)cc3)CC2)c2nc(-c3ccco3)nn12 [Compound 10],> 1,0.00884 ± 0.00064,–,17,> 1,13,> 1,6,–,–,–,–,–,–,–,–
COCCOc1ccc(N2CCN(CCn3ncc4c3nc(N)n3nc(-c5ccco5)nc43)CC2)cc1 [Preladenant],–,–,–,–,–,–,–,–,–,–,–,several hundred‐ to more than 1000‐fold,< 0.001,≈ 3 orders of magnitude,> 1,> 1
Nc1nc(NCCc2ccc(O)cc2)nc2nc(-c3ccco3)nn12 [ZM241385],–,–,–,–,–,–,–,–,–,–,–,–,–,–,–,> 10

# More lines, main results first:
Ki (Human A1AR; Radioligand [3H]CCPA) [µM],Ki (Human A2AAR [1]) [µM],fold more potent at A2AAR than free carboxylic acid 2 (Human A2AAR [1]; compared with compound 2),inhibition at 1 µM (Human A2BAR [2]; [7]) [%],Ki (Human A2BAR [2]; Radioligand [3H]PSB-603) [µM],inhibition at 1 µM (Human A3AR [3]; [8]) [%],Ki (Human A3AR [3]; Radioligand [3H]PSB-11) [µM],"inhibition at 1 µM (Human A1AR; Radioligand [3H]CCPA, at 1 μM) [%]",Compound,inhibition at 1 µM (Human A1AR) [%],inhibition at 1 µM (Human A2BAR [2]) [%],inhibition at 1 µM (Human A3AR [3]) [%],selectivity towards the other AR subtypes (Human A2AAR [4]; A2AAR versus other AR subtypes),"Ki (Human A2AAR [4]; Human A2AAR, read-out: Ki±SEM) [µM]",selectivity for A2AAR (Human A2AAR [4]; conclusion statement),Ki (Human A2BAR [5]) [µM],Ki (Human A3AR [6]) [µM]
0.42 ± 0.036,0.00193 ± 0.00075,≈ 100 fold,15,> 1,25,> 1,–,CC(C)(C)OC(=O)COc1ccc(N2CCN(CCn3ncc4c3nc(N)n3nc(-c5ccco5)nc43)CC2)cc1 [Compound 1],–,–,–,–,–,–,–,–
> 1,0.2 ± 0.016,–,2,> 1,12,> 1,18,Nc1nc2c(cnn2CCN2CCN(c3ccc(OCC(=O)O)cc3)CC2)c2nc(-c3ccco3)nn12 [Compound 2],–,–,–,–,–,–,–,–
> 1,0.00939 ± 0.00139,–,24,> 1,8,> 1,28,CC(C)(C)OC(=O)COCCOCCOCCOCCOCCNC(=O)COc1ccc(N2CCN(CCn3ncc4c3nc(N)n3nc(-c5ccco5)nc43)CC2)cc1 [Compound 5],–,–,–,–,–,–,–,–
> 1,0.0103 ± 0.0021,–,0,> 1,26,> 1,1,CC(C)(C)OC(=O)COCCOCCOCCOCCOCCOCCOCCOCCNC(=O)COc1ccc(N2CCN(CCn3ncc4c3nc(N)n3nc(-c5ccco5)nc43)CC2)cc1 [Compound 6],–,–,–,–,–,–,–,–
> 1,0.00892 ± 0.00405,–,8,> 1,14,> 1,23,CC(C)(C)OC(=O)COCCOCCOCCOCCOCCOCCOCCOCCOCCOCCOCCOCCNC(=O)COc1ccc(N2CCN(CCn3ncc4c3nc(N)n3nc(-c5ccco5)nc43)CC2)cc1 [Compound 7],–,–,–,–,–,–,–,–
> 1,0.0303 ± 0.0079,–,5,> 1,2,> 1,2,CC(C)(C)OC(=O)COCCOCCOCCOCCOCCOCCOCCOCCOCCOCCOCCOCCOCCOCCOCCOCCNC(=O)COc1ccc(N2CCN(CCn3ncc4c3nc(N)n3nc(-c5ccco5)nc43)CC2)cc1 [Compound 8],–,–,–,–,–,–,–,–
